# From the supplement of paper PMC8728848
# Some of the results follow.
# Experiments:
# Assay in all cases: glycan array binding signal (z-score within array); higher = stronger binding
# Details in all cases: glycan notation: IUPAC condensed, linker removed
# [1] = biological target: Neu5Ac(a2-6)GlcNAc(b1-4)GlcNAc(b1-4)GlcNAc
# Method in brief: (§1)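 Arrays were curated from the Consortium for Functional Glycomics database, 3228 in total, and kept only where the protein sequence was available. Binding is expressed as a within-array Z-score. This score was averaged across arrays of the same protein sequence at different concentrations or buffers and across linkers, and negative values can be read as non-binding.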
# [2] = biological target: Neu5Ac(a2-8)Neu5Ac
# Method in brief: as §1
# [3] = biological target: Neu5Ac(a2-8)Neu5Ac(a2-3)Gal(b1-3)GalNAc(b1-4)[Neu5Ac(a2-3)]Gal(b1-4)Glc
# Method in brief: as §1
# [4] = biological target: Neu5Ac(a2-8)Neu5Ac(a2-3)Gal(b1-3)GalNAc(b1-4)[Neu5Ac(a2-8)Neu5Ac(a2-3)]Gal(b1-4)Glc
# Method in brief: as §1
# [5] = biological target: Neu5Ac(a2-8)Neu5Ac(a2-3)Gal(b1-4)Glc
# Method in brief: as §1
# [6] = biological target: Neu5Ac(a2-8)Neu5Ac(a2-3)Gal(b1-4)GlcNAc
# Method in brief: as §1
# [7] = biological target: Neu5Ac(a2-8)Neu5Ac(a2-3)[Gal(b1-3)GalNAc(b1-4)]Gal(b1-4)Glc
# Method in brief: as §1
# [8] = biological target: Neu5Ac(a2-8)Neu5Ac(a2-3)[GalNAc(b1-4)]Gal(b1-4)Glc
# Method in brief: as §1
# [9] = biological target: Neu5Ac(a2-8)Neu5Ac(a2-8)Neu5Ac
# Method in brief: as §1
# [10] = biological target: Neu5Ac(a2-8)Neu5Ac(a2-8)Neu5Ac(a2-3)Gal(b1-4)Glc
# Method in brief: as §1
# [11] = biological target: Neu5Ac(a2-8)Neu5Ac(a2-8)Neu5Ac(a2-3)[Gal(b1-3)GalNAc(b1-4)]Gal(b1-4)Glc
# Method in brief: as §1
# [12] = biological target: Neu5Ac(a2-8)Neu5Ac(a2-8)Neu5Ac(a2-3)[GalNAc(b1-4)]Gal(b1-4)Glc
# Method in brief: as §1
# [13] = biological target: Neu5Ac(a2-8)Neu5Ac(a2-8)Neu5Ac(a2-8)Neu5Ac(a2-3)[GalNAc(b1-4)]Gal(b1-4)Glc
# Method in brief: as §1
# [14] = biological target: Neu5Ac(a2-8)Neu5Gc(a2-3)Gal(b1-4)GlcNAc
# Method in brief: as §1
# [15] = biological target: Neu5Ac(b2-6)Gal(b1-4)GlcNAc
# Method in brief: as §1
# [16] = biological target: Neu5Ac(b2-6)GalNAc
# Method in brief: as §1
# [17] = biological target: Neu5Ac9Ac(a2-3)Gal(b1-3)GlcNAc
# Method in brief: as §1
# [18] = biological target: Neu5Ac9Ac(a2-3)Gal(b1-4)GlcNAc
# Method in brief: as §1
# [19] = biological target: Neu5Ac9Ac(a2-6)Gal(b1-4)GlcNAc
# Method in brief: as §1
# [20] = biological target: Neu5Gc(a2-3)Gal(b1-3)GlcNAc
# Method in brief: as §1
# [21] = biological target: Neu5Gc(a2-3)Gal(b1-3)[Fuc(a1-4)]GlcNAc
# Method in brief: as §1
# [22] = biological target: Neu5Gc(a2-3)Gal(b1-4)Glc
# Method in brief: as §1
# [23] = biological target: Neu5Gc(a2-3)Gal(b1-4)GlcNAc
# Method in brief: as §1
# [24] = biological target: Neu5Gc(a2-3)Gal(b1-4)GlcNAc(b1-3)Gal(b1-4)GlcNAc(b1-2)Man(a1-3)[Neu5Gc(a2-3)Gal(b1-4)GlcNAc(b1-3)Gal(b1-4)GlcNAc(b1-2)Man(a1-6)]Man(b1-4)GlcNAc(b1-4)GlcNAc
# Method in brief: as §1
# [25] = biological target: Neu5Gc(a2-3)Gal(b1-4)[Fuc(a1-3)]GlcNAc
# Method in brief: as §1
# [26] = biological target: Neu5Gc(a2-6)Gal(b1-4)GlcNAc
# Method in brief: as §1
# [27] = biological target: Neu5Gc(a2-6)GalNAc
# Method in brief: as §1
# [28] = biological target: Neu5Gc(a2-8)Neu5Ac(a2-3)Gal(b1-4)GlcNAc
# Method in brief: as §1
# [29] = biological target: Neu5Gc(a2-8)Neu5Gc(a2-3)Gal(b1-4)GlcNAc
# Method in brief: as §1
# [30] = biological target: Neu5Gc(a2-8)Neu5Gc(a2-3)Gal(b1-4)GlcNAc(b1-3)Gal(b1-4)GlcNAc
# Method in brief: as §1
# [31] = biological target: Neu5Gc(a2-8)Neu5Gc(a2-6)Gal(b1-4)GlcNAc
# Method in brief: as §1
# [32] = biological target: Neu5Gc(b2-6)Gal(b1-4)GlcNAc
# Method in brief: as §1
binder,measurement,setting,value
"Gal-9-hFc (Mus musculus), O08573-2 (protein) MALFSAQSPYINPIIPFTGPIQGGLQEGLQVTLQGTTKSFAQRFVVNFQNSFNGNDIAFHFNPRFEEGGYVVCNTKQNGQWGPEERKMQMPFQKGMPFELCFLVQRSEFKVMVNKKFFVQYQHRVPYHLVDTIAVSGCLKLSFITFQTQNFRPAHQAPMAQTTIHMVHSTPGQMFSTPGIPPVVYPTPAYTIPFYTPIPNGLYPSKSIMISGNVLPDATRFHINLRCGGDIAFHLNPRFNENAVVRNTQINNSWGQEERSLLGRMPFSRGQSFSVWIICEGHCFKVAVNGQHMCEYYHRLKNLQDINTLEVAGDIQLTHVQT",glycan array binding signal (z-score),[1],0.481
same,glycan array binding signal (z-score),[2],-0.108
same,glycan array binding signal (z-score),[3],-0.279
same,glycan array binding signal (z-score),[4],-0.297
same,glycan array binding signal (z-score),[5],-0.553
same,glycan array binding signal (z-score),[6],-0.494
same,glycan array binding signal (z-score),[7],-0.205
same,glycan array binding signal (z-score),[8],-0.089
same,glycan array binding signal (z-score),[9],2.03
same,glycan array binding signal (z-score),[10],-0.08
same,glycan array binding signal (z-score),[11],-0.323
same,glycan array binding signal (z-score),[12],-0.076
same,glycan array binding signal (z-score),[13],-0.366
same,glycan array binding signal (z-score),[14],-0.49
same,glycan array binding signal (z-score),[15],-0.344
same,glycan array binding signal (z-score),[16],-0.655
same,glycan array binding signal (z-score),[17],-0.299
same,glycan array binding signal (z-score),[18],-0.435
same,glycan array binding signal (z-score),[19],-0.538
same,glycan array binding signal (z-score),[20],-0.398
same,glycan array binding signal (z-score),[21],-0.331
same,glycan array binding signal (z-score),[22],0.367
same,glycan array binding signal (z-score),[23],-0.414
same,glycan array binding signal (z-score),[24],-0.365
same,glycan array binding signal (z-score),[25],-0.358
same,glycan array binding signal (z-score),[26],-0.271
same,glycan array binding signal (z-score),[27],-0.208
same,glycan array binding signal (z-score),[28],-0.447
same,glycan array binding signal (z-score),[29],-0.504
same,glycan array binding signal (z-score),[30],-0.401
same,glycan array binding signal (z-score),[31],-0.482
same,glycan array binding signal (z-score),[32],-0.236
